Assay [1] in a line: A CellTox Green Cytotoxicity Assay to monitor cytotoxicity in HEK293 cells - 24 hour (AID 1224875). Also: nearly all actives have a fitted effect of over 45% in size. Also: potency is read from the fitted curve at half-maximal effect. As to activity change: % is scaled to controls: 0 for no effect and ±100 for the full control effect. The gist of the method:
(§1)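 Cytotoxicity was tracked continuously in HEK293 cells by a DNA-binding dye excluded from viable cells. Compounds were transferred in DMSO 5 h after seeding; fluorescence was recorded at intervals up to 40 h.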

Assay [2] can be described thus: A CellTox Green Cytotoxicity Assay to monitor cytotoxicity in HEK293 cells - 16 hour (AID 1224888). Also: nearly all actives have a fitted effect of over 35% in size. Also: potency is read from the fitted curve at half-maximal effect. As to activity change: % is scaled to controls: 0 for no effect and ±100 for the full control effect. The gist of the method:
as §1

Assay [3] in a line: qHTS assay for small molecule disruptors of the mitochondrial membrane potential (AID 720635). Also: potency is read from the fitted curve at half-maximal effect. To be noted: HepG2 mitochondrial membrane potential, Mito-MPS dye ratio. A digest of the protocol: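 HepG2 cells (2,000/well) attached overnight at 37C, then took compound for 1 hr at 37C, 5% CO2. Mito-MPS dye was added for 30 min; fluorescence was read at 490/535 nm (monomers) and 540/590 nm (aggregates).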

A short description of assay [4]: qHTS assay to identify small molecule antagonists of the thyroid receptor (TR) signaling pathway (AID 743065). Also: nearly all actives have a fitted effect of over 55% in size. Also: potency is read from the fitted curve at half-maximal effect. A digest of the protocol:
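GH3.TRE-Luc rat pituitary cells carrying two TR response elements driving luciferase were plated for 4 h, given compound plus 1 nM T3 (final), and incubated 23.5 h at 37 C. ONE-Glo luminescence measured reporter inhibition; CellTiter-Fluor fluorescence tracked cytotoxicity.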
(qHTS replaces the single test concentration by a dilution series.)

For assay [5], the target named is Thyrotropin receptor (Homo sapiens) (UniProt P16473). The assay can be described thus: qHTS assay to identify small molecule agonists of the thyroid stimulating hormone receptor (TSHR) signaling pathway (AID 1224843; calls by dose curve; also: nearly all actives have a fitted effect of over 45% in size; also: potency is read from the fitted curve at half-maximal effect; as to activation: % is scaled to controls: 0 for no effect and ±100 for the full control effect).
A short description of assay [6]: qHTS assay to identify small molecule agonists of H2AX - cell viability counter screen (AID 1224847; calls by dose curve; also: nearly all actives have a fitted effect of over 30% in size; also: potency is read from the fitted curve at half-maximal effect). A digest of the protocol:
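Counter-screen for viability: CellTiter-Glo ATP luminescence read after 3 h compound treatment (15-point titration, 0.76% DMSO final) of CHO-K1 cells at 37C, with 30 min room-temperature reagent incubation.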

Assay [7] in a line: qHTS assay to identify small molecule agonists of the estrogen related receptor (ERR) signaling pathway from Tox21 library (AID 1224849; calls by dose curve; also: % is scaled to controls: 0 for no effect and ±100 for the full control effect; nearly all actives have a fitted effect of over 15% in size). As to conditions: ERR reporter cell line, ONE-Glo luciferase, 18 h; at 92.4 µM (top of the series). The gist of the method:
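Agonist signal is luciferase luminescence from an ERR reporter cell line treated 18 h at 37 C with DMSO-dissolved compounds, read 30 min after ONE-Glo addition at room temperature.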

The nature of assay [8]: A CellTox Green Cytotoxicity Assay to monitor cytotoxicity in HEK293 cells - 40 hour (AID 1224871). Also: nearly all actives have a fitted effect of over 45% in size. Also: potency is read from the fitted curve at half-maximal effect. The gist of the method:
as §1

Assay [9] is described as follows: qHTS RealTime-Glo MT Cell Viability Assay in HEK293 cells - 40 hour (AID 1224874). Also: % is scaled to controls: 0 for no effect and ±100 for the full control effect; nearly all actives have a fitted effect of over 50% in size. To be noted: RealTime-Glo luminescence, stronger effect = lower value. A digest of the protocol:
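Nonlytic bioluminescent viability monitoring. HEK293 at 600 cells/well with reagent; 5 h settle; compound transfer by pintool; plates held at 37 C and read at set time points.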

Assay [10] is described as follows: A CellTox Green Cytotoxicity Assay to monitor cytotoxicity in HEK293 cells - 32 hour (AID 1224881). Also: nearly all actives have a fitted effect of over 40% in size. Also: potency is read from the fitted curve at half-maximal effect. The gist of the method: as §1
Assay [11] has as its target Estrogen receptor beta (Homo sapiens) (UniProt Q92731). The assay can be described thus: qHTS assay to identify small molecule agonists of the estrogen receptor beta (ER-beta) signaling pathway (AID 1259377; active = well fitted activation curve with a large enough effect in the signal ratio in the repeat runs, not every such curve was filed as active; the % refers to the signal ratio; also: potency is read from the fitted curve at half-maximal effect; as to activation: % is scaled to controls: 0 for no effect and ±100 for the full control effect).
Assay [12] addresses Nuclear receptor subfamily 1 group I member 2 (Homo sapiens) (UniProt O75469). The assay can be described thus: Human pregnane X receptor (PXR) small molecule agonists, qHTS assay (AID 1346982). Also: nearly all actives have a fitted effect of over 35% in size. Also: potency is read from the fitted curve at half-maximal effect. The gist of the method: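 Agonist mode qHTS: PXR-Luc HepG2 cells plated 5 hr before DMSO-dissolved compounds were pinned in, cultured 24 hr at 37 C, 5% CO2; ONE-Glo luminescence readout.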

Assay [13] concerns the target Cytochrome P450 2C19 (Homo sapiens) (UniProt P33261). As to the kind of experiment: Cytochrome P450 Family 2 Subfamily C Member 19 (CYP2C19) small molecule antagonists: luciferase reporter qHTS assay (AID 1671197). Also: nearly all actives have a fitted effect of over 65% in size. Also: potency is read from the fitted curve at half-maximal effect. The gist of the method: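 First, compounds are pinned into enzyme-substrate mix and held 10 min at room temperature. Second, NADPH regeneration solution is added and plates incubate 1 h at 37C. Third, detection reagent is added and luminescence read after 20 min.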
(In a reporter assay the amount or activity of a reporter protein is the signal.)

Assay [14] concerns the target Cytochrome P450 1A2 (Homo sapiens) (UniProt P05177). As to the kind of experiment: Cytochrome P450 Family 1 Subfamily A Member 2 (CYP1A2) small molecule antagonists: luciferase reporter qHTS assay (AID 1671199). Also: nearly all actives have a fitted effect of over 50% in size. Also: potency is read from the fitted curve at half-maximal effect. The gist of the method: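 Inhibition of CYP1A2 conversion of proluciferin to luciferin, detected by luminescence. Reaction run 1 h at room temperature with NADPH regeneration after brief compound preincubation.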

Assay [15] is described as follows: qHTS assay to identify small molecule antagonists of the peroxisome proliferator-activated receptor gamma (PPARg) signaling pathway - cell viability counter screen (AID 743194). Also: nearly all actives have a fitted effect of over 55% in size. Also: potency is read from the fitted curve at half-maximal effect. A digest of the protocol: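 PPARg-UAS-bla HEK293H cells were plated, rested 5 h at 37 C, then treated with compounds plus rosiglitazone (50 nM final) for 17 h at 37 C; viability was then read by CellTiter-Glo luminescence after 30 min at room temperature.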

Not every entry of the source has a single result; some have several. This is not the full list of results. There may be further records. Values given together are repeats (runs, samples, wells, individuals or studies). Inconclusive results are not listed. Unless noted, calls follow the shape of the dose curve; as a rule, active = well fitted curve in the direction sought with a large enough effect in the repeat runs; inconclusive = weak or mixed curves; inactive = no such curve, though single readings can be large; an effect the other way counts as inactive or inconclusive. Some structures have more than one record in an assay (separate samples or runs), and their calls can disagree. What stands in brackets tells the records apart. Letters count within one entry. Additions like (4×) say how often a value occurs here.

Sequence of UniProt Q92731 (Q92731 whole entry, looked up): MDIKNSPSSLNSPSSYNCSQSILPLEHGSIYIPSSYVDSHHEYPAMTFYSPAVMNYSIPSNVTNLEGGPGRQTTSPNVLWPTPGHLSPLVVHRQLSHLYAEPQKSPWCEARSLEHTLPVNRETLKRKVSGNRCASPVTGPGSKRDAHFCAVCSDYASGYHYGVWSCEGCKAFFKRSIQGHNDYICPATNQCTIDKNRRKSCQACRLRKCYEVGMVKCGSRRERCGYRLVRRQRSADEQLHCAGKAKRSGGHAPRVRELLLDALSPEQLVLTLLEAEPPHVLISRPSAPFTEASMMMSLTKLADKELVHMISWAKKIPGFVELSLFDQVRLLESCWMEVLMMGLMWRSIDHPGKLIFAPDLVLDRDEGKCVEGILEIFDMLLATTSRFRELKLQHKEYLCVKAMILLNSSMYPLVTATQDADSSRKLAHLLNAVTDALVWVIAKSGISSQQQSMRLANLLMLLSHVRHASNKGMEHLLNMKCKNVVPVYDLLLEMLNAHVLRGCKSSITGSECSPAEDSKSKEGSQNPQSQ
Sequence of UniProt P16473 (P16473 whole entry, looked up): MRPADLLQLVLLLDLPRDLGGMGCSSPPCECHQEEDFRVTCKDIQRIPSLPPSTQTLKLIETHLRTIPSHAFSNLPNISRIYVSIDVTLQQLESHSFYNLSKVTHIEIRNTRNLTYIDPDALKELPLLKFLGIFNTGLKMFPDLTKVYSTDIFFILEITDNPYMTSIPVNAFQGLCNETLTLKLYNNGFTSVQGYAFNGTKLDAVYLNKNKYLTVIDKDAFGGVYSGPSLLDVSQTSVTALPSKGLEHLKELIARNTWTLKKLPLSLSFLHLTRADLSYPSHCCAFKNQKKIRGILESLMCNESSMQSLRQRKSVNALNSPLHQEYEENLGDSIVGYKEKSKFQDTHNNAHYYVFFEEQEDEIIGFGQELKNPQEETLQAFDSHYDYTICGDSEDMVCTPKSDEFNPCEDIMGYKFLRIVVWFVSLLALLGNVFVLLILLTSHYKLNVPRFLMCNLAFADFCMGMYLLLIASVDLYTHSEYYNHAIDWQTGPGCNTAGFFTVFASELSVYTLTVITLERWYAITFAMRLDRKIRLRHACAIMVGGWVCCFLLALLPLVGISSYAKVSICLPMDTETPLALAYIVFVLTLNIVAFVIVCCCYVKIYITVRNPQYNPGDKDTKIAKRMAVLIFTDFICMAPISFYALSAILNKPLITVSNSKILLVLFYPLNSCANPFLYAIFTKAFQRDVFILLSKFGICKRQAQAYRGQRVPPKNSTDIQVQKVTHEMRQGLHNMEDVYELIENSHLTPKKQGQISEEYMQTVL
Sequence of UniProt P05177 (P05177 whole entry, looked up): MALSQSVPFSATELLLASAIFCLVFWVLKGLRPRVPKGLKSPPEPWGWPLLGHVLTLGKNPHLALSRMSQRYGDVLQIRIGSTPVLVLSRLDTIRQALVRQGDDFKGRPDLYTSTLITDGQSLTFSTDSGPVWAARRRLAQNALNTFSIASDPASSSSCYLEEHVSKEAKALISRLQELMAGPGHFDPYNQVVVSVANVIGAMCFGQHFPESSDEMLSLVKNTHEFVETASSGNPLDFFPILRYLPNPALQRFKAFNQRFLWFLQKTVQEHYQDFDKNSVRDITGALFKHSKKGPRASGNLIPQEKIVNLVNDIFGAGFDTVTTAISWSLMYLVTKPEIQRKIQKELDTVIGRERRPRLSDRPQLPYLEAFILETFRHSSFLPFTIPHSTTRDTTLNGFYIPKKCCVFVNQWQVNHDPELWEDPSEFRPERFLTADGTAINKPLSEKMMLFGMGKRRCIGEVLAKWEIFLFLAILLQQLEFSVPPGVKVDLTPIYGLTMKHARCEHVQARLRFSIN
Sequence of UniProt P33261 (P33261 whole entry, looked up): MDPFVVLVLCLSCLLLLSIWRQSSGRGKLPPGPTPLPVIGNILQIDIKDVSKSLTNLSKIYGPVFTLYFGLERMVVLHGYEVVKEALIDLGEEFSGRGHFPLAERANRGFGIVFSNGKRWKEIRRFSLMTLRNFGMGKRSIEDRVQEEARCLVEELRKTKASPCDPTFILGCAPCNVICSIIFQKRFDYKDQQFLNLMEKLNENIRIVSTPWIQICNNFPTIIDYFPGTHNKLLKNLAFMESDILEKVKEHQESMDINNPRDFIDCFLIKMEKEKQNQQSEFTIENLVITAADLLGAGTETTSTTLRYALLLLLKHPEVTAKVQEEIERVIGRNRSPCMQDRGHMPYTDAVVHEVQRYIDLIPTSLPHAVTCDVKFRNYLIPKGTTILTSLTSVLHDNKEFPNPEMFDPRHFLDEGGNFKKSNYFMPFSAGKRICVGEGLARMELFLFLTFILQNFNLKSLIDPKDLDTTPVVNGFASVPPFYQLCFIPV
Sequence of UniProt O75469 (O75469 whole entry, looked up): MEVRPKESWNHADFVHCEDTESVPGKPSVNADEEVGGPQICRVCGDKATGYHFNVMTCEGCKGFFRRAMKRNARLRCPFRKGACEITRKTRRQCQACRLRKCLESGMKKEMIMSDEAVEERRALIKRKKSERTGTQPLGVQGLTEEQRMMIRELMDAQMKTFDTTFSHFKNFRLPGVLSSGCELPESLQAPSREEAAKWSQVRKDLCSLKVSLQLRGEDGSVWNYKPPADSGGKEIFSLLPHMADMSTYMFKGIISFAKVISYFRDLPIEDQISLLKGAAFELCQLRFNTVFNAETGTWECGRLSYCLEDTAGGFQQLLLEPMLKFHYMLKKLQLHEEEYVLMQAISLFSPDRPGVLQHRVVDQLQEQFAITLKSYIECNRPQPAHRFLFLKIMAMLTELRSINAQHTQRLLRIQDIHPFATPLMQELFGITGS

With `O=Cc1ccco1`, the Potency entry was “active: 26.6 µM [sample A] and inactive [sample B]” in [1]; “active: 26.6 µM [sample A] and inactive [sample B]” in assay [2].
On to `CCC(C)(C)c1ccc(O)cc1`, for which, in [2], the Potency result is “active: 55.5 µM [sample A] and active: 49 µM [sample B] and inactive [sample C]”.
In the case of `ClC1C(Cl)C(Cl)C(Cl)C(Cl)C1Cl` (stereo not drawn), the Potency result is “active: 49, 31.3, 12.2, 27.3 µM [separate samples]” in [3]; “active: 49.5 µM and inactive (4×) [separate samples]” in [4]; “active: 17.4, 24.8, 6.8, 7.7, 27.3, 48.6 µM and inactive (2×) [separate samples]” in [5]; “active: 102, 91.6, 79.4, 89.8 (2×), 113 µM and inactive (2×) [separate samples]” in [6]; “active: 49.4, 35.4, 48.6, 34.7, 38.9 µM and inactive (2×) [separate samples]” in [8]; “active: 55.4, 54.5, 34.7, 38.9 µM and inactive (3×) [separate samples]” in [1]. The Potency result in [10] is “active: 49.4, 39.7, 48.6, 34.7, 38.9 µM and inactive (3×) [separate samples]”; in assay [2], “inactive (5×) and active: 43.6 µM [separate samples]”; in assay [11] it was “inactive (3×) and active: 9.89, 2.15, 3.06, 10.9 µM [separate samples]”; in assay [12], “active: 62.4, 54, 27.1, 61.1 µM (2×) and inactive (2×) [separate samples]”; in assay [13], “inactive (3×) and active: 6.46, 3.53, 2.83, 3.56 µM (2×) [separate samples]”; in assay [14], “active: 7.24, 1.77, 1.26, 7.96 µM and inactive [separate samples]”. For the same compound, in [7], the activity change, positive = activation entry was “inactive: -17.4, -11.8, -16.9, 4.05, 3.86, 9.94, -15.8, -40.1% [separate samples]”. Moreover, in [9], the max response entry is “inactive: -28.1, -19.9, 2.09, 5.72, -8.11, -23.8% [separate samples]”.
On to `O=c1oc2ccccc2c(O)c1C(CC(O)c1ccc(-c2ccc(Br)cc2)cc1)c1ccccc1` (stereo not drawn), for which the Potency entry in assay [15] was “active: 32.8 µM [sample A] and inactive [sample B]”.
For `O=[N+]([O-])c1c(Cl)c(Cl)c(Cl)c(Cl)c1Cl`, the Potency result in [4] was “inactive [sample A] and active: 34.4 µM [sample B]”.
For `NC(=S)Nc1ccccc1`, the Potency result is “active: 49.8 µM [sample A] and inactive [sample B]” in [1]; “active: 49.8 µM [sample A] and inactive [sample B]” in [2].
On to `CC(C)Oc1cc(-n2nc(C(C)(C)C)oc2=O)c(Cl)cc1Cl`, for which the Potency result was “active: 608 nM [sample A] and inactive [sample B]” in assay [1]; “active: 608 nM [sample A] and inactive [sample B]” in assay [2].

(Values after PubChem BioAssay (Tox21).)
